# Measured values from PubChem BioAssay (Tox21).
# The inconclusive results got no clear call from the source; some entries with a clear call stand among them for comparison. For some of these results: No potency is given beside an inconclusive call; the fits are too rough. Some compounds were tested as several samples or in several runs, with calls that do not always agree. Activity calls are given as the source filed them. Unless noted, the call rests on the fitted dose curve; in most records, active means well fitted curve in the direction sought with a large enough effect in the repeat runs; inconclusive means weak or mixed curves; inactive means no such curve, though single readings can be large; an effect the other way counts as inactive or inconclusive.
# Legend:
# [1] = qHTS assay to identify small molecule antagonists of the estrogen related receptor (ERR) signaling pathway - cell viability counter screen (AID 1224818); further: potency means the concentration at half of the fitted maximal effect;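 further: viability measured after 17.5 h of compound exposure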
# In short: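 Here, ERR cells are plated at 2,000 cells per well, allowed 6 h to attach, and treated with compounds in DMSO for 17.5 h at 37 C. CellTiter-Fluor is then added and fluorescence read after 30 min.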
# [2] = qHTS assay to identify small molecule antagonists of the estrogen related receptor signaling pathway with the pleiotropic PPARgamma coactivator (PGC) cell viability counter screen (AID 1224822;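 further: potency means the concentration at half of the fitted maximal effect; viability read after 17.5 h compound exposure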)
# In short: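 qHTS format, DMSO compound stocks pin-transferred onto PGC/ERR cells 6 h after plating; 17.5 h exposure at 37 C, then CellTiter-Fluor fluorescence.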
# [3] = qHTS assay to identify small molecule agonists of the peroxisome proliferator-activated receptor delta (PPARd) signaling pathway - cell viability counter screen (AID 743211); conditions: PPARd-bla HEK293H viability, CellTiter-Glo luminescence, 17 h; activity change, negative = cytotoxicity: at 62.6 µM (top of the series); further: nearly all actives have a fitted effect of over 55% in size; further: potency means the concentration at half of the fitted maximal effect
# In short: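 Read-out: CellTiter-Glo luminescence, 30 min RT, measured in the same wells as the beta-lactamase reporter. Cells: GeneBLAzer PPAR delta UAS-bla HEK293H, 3000 cells/well, compound exposure 17 h at 37C.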
# [4] = biological target: Acetylcholinesterase (Homo sapiens) (UniProt P22303); assay: Acetylcholinesterase (AChE) small molecule antagonists: fluorescence cell-based qHTS assay (AID 1347398; calls by dose curve; further: nearly all actives have a fitted effect of over 50% in size; further: potency means the concentration at half of the fitted maximal effect); conditions: Potency: AChE activity
# In short: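 Fluorimetric cell-based assay: intact SH-SY5Y cells, 30 min compound preincubation at 37 C, acetylthiocholine substrate with thiol probe Thiolite Green, 40 min RT development, fluorescence 490/520 nm.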
# [5] = qHTS assay to identify small molecule antagonists of the estrogen related receptor signaling pathway with the pleiotropic PPARgamma coactivator (PGC) from Tox21 10K library (AID 1224841; call rule not given here; further: on the % scale 0 is the no-effect control and ±100 the full control effect; actives are mostly falling curves and most rising ones were filed inactive; nearly all actives have a fitted effect of over 50% in size)
# In short: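 Compound exposure ran 18 hours at 37 C in PGC/ERR cells (2,000/well) that had first rested 6 hours in a 37 C/5% CO2 incubator. Luciferase activity was then detected with One-Glo after a 30-minute room-temperature step.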
# [6] = Human pregnane X receptor (PXR) small molecule agonists, qHTS cell viability counter screen (AID 1346977); further: nearly all actives have a fitted effect of over 50% in size; further: potency means the concentration at half of the fitted maximal effect; on activity change, negative = cytotoxicity: on the % scale 0 is the no-effect control and ±100 the full control effect
# In short: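 Fluorescence read-out (CellTiter-Fluor) of viability in PXR-Luc HepG2 cells, multiplexed with the luciferase agonist read. Compounds in DMSO added after 5hr plating; 24hr total exposure at 37C, 5% CO2.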
# [7] = biological target: Cytochrome P450 3A4 (Homo sapiens) (UniProt P08684); assay: Cytochrome P450 Family 3 Subfamily A Member 4 (CYP3A4) small molecule antagonists: luciferase reporter qHTS assay (AID 1671201); further: potency means the concentration at half of the fitted maximal effect; nearly all actives have a fitted effect of over 50% in size
# In short: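 Luminescent readout (RLU) proportional to CYP3A4 activity, from luciferin generated off a proluciferin substrate. Enzyme–substrate mix plus compound 10 min at room temp, NADPH regeneration 1 h, detection reagent 20 min.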
# [8] = qHTS RealTime-Glo MT Cell Viability Assay in HEK293 cells - 40 hour (AID 1224874); conditions: RealTime-Glo luminescence; max response: stronger effect = lower value
# In short: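 qHTS format; HEK293 cells with NanoLuc/prosubstrate reagent, 37 C/5% CO2 for 5 h pre-dosing; compounds 23 nL in DMSO; luminescence at each time point reflects viable cells.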
# [9] = biological target: Peroxisome proliferator-activated receptor delta (Homo sapiens) (UniProt Q03181); assay: qHTS assay to identify small molecule agonists of the peroxisome proliferator-activated receptor delta (PPARd) signaling pathway (AID 743212; calls by dose curve; further: on the % scale 0 is the no-effect control and ±100 the full control effect); conditions: HEK293H PPARd-UAS-bla, beta-lactamase FRET ratio, 17 h; activation: at 62.6 µM (top of the series) unless noted
# In short: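 HEK293H UAS-bla reporter cells, human PPARd system; compounds delivered in DMSO after 5 h plating, then at 37 C. Beta-lactamase FRET read, 2 h RT substrate step.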
# [10] = biological target: Progesterone receptor (Homo sapiens) (UniProt P06401); assay: qHTS assay to identify small molecule agonists of the progesterone receptor (PR) signaling pathway (AID 1346784; calls by dose curve; further: nearly all actives have a fitted effect of over 30% in size; further: potency means the concentration at half of the fitted maximal effect); conditions: PR-UAS-bla HEK293T, beta-lactamase FRET ratio, 16 h; activation: at 92.4 µM (top of the series) unless noted
# In short: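 HEK 293T PR-UAS-bla reporter cells, 2% charcoal-stripped FBS; 6 hr settle at 37C/5% CO2, compound (DMSO) 16 hr, LiveBLAzer B/G FRET substrate 2 hr RT, fluorescence intensity read.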
# [11] = qHTS assay to identify small molecule antagonists of the estrogen related receptor signaling pathway with the pleiotropic PPARgamma coactivator (PGC) from Tox21 10K library - cell viability counter screen (AID 1224840; active means well fitted cell-killing curve with a large enough effect in the repeat runs, not every such curve was filed as active; inconclusive means weak or mixed curves, or effect the other way; inactive means no such curve, though single readings can be large or run the other way; further: on the % scale 0 is the no-effect control and ±100 the full control effect; nearly all actives have a fitted effect of over 40% in size)
# In short: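 Compounds in DMSO, alongside positive and negative controls, were pinned onto PGC/ERR cells (2,000 per well). Exposure lasted 17.5 hours at 37 C, followed by a 30-minute CellTiter-Fluor incubation and fluorescence reading.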
# [12] = A CellTox Green Cytotoxicity Assay to monitor cytotoxicity in HEK293 cells - 8 hour (AID 1224884); further: nearly all actives have a fitted effect of over 35% in size; further: potency means the concentration at half of the fitted maximal effect
# In short: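 Each value comes from one timepoint of a single continuous run in which HEK293 cells with CellTox Green were exposed to compound for up to 40 h at 37 C, dye fluorescence rising with cell death.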
# [13] = qHTS assay to identify small molecule agonists of the TGF-beta/Smad signaling pathway (AID 1346859; active means well fitted activation curve with a large enough effect in the signal ratio in the repeat runs, not every such curve was filed as active; inconclusive means weak or mixed curves; the % refers to the signal ratio; further: potency means the concentration at half of the fitted maximal effect)
# In short: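 Read-out: fluorescence at 460 and 530 nm (405 nm excitation) after a 2 hr room-temperature incubation with beta-lactamase FRET substrate. SBE-bla HEK 293T cells had been treated with test compounds for 5 hr at 37 C.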
# [14] = Caspase-3/7 induction in CHO-K1 cells by small molecules, qHTS cell viability counter screen (AID 1346979); further: nearly all actives have a fitted effect of over 35% in size; further: potency means the concentration at half of the fitted maximal effect
# In short: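 CHO-K1 wt, 1,500 cells/well; 5hr pre-incubation 37C/5% CO2; compound pin transfer (DMSO); 16hr exposure; CellTiter-Fluor added, 1hr, fluorescence read.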
# [15] = biological target: Estrogen receptor (Homo sapiens) (UniProt P03372); assay: qHTS assay to identify small molecule antagonists of the estrogen receptor alpha (ER-alpha) signaling pathway (AID 743069; active means well fitted curve in the direction sought with a large enough effect in the signal ratio in the repeat runs, not every such curve was filed as active; inconclusive means weak or mixed curves, or effect the other way; inactive means no such curve, though single readings can be large or run the other way; the % refers to the signal ratio; further: on the % scale 0 is the no-effect control and ±100 the full control effect); conditions: HEK293 ER-alpha-UAS-bla, beta-lactamase ratio, antagonist mode; activity, negative = inhibition: at 69.4 µM (top of the series) unless noted
# In short: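 Compound effects are measured against 17beta-estradiol stimulation in HEK293 cells with a UAS-controlled beta-lactamase reporter for ER-alpha. Exposure lasts 18 hr at 37C; LiveBLAzer B/G FRET substrate follows for 2 hr at room temperature.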
# [16] = biological target: Nuclear receptor subfamily 1 group I member 3 (Homo sapiens) (UniProt Q14994); assay: qHTS assay to identify small molecule agonists of the constitutive androstane receptor (CAR) signaling pathway (AID 1224839); further: potency means the concentration at half of the fitted maximal effect; nearly all actives have a fitted effect of over 15% in size
# In short: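 Luminescence read-out (ONE-Glo, 30 min, room temperature) from double-stable HepG2-CYP2B6-hCAR cells exposed 24 h to 15-point compound series in presence of 0.75 uM PK11195 final.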
# [17] = biological target: Estrogen receptor beta (Homo sapiens) (UniProt Q92731); assay: qHTS assay to identify small molecule agonists of the estrogen receptor beta (ER-beta) signaling pathway (AID 1259377; active means well fitted activation curve with a large enough effect in the signal ratio in the repeat runs, not every such curve was filed as active; inconclusive means weak or mixed curves, or effect the other way; the % refers to the signal ratio; further: on the % scale 0 is the no-effect control and ±100 the full control effect); conditions: ER-beta-UAS-bla HEK293T, beta-lactamase FRET ratio, 16 h; activation: at 92.4 µM (top of the series) unless noted
# In short: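 Beta-lactamase reporter readout: fluorescence of LiveBLAzer B/G FRET substrate after 2 h at room temperature, following 16 h compound treatment of ER-beta-UAS-bla HEK293T cells at 37C in 2% charcoal-stripped FBS medium.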
# [18] = qHTS assay to identify small molecule agonists of H2AX - cell viability counter screen (AID 1224847; calls by dose curve; further: nearly all actives have a fitted effect of over 30% in size; further: potency means the concentration at half of the fitted maximal effect)
# In short: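 CHO-K1 wt, 1000 cells/well, o/n 37C; cpds 15 conc, 3 h 37C, 0.76% DMSO; CellTiter-Glo, 30 min RT, luminescence.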
# Tags describe the fitted curve by direction and shape or compound fluorescence and quenching.
# Chain of UniProt P22303 (P22303 whole entry, looked up): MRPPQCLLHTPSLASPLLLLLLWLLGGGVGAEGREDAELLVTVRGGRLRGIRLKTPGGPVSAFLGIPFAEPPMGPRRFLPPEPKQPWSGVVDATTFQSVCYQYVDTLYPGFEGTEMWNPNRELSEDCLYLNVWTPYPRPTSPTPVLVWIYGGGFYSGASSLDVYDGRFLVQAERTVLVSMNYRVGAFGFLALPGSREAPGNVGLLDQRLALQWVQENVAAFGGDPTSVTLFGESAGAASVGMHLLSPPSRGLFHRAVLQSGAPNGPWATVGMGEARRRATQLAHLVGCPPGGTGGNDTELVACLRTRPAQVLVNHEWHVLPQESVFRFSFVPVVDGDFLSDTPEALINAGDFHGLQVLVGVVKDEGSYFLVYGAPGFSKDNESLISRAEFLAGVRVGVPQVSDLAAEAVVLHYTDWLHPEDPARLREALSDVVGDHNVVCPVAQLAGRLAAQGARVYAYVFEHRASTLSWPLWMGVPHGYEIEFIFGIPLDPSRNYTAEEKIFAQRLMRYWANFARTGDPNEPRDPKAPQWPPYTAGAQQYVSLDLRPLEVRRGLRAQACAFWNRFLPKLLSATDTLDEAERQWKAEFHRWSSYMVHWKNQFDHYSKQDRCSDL
# Chain of UniProt Q14994 (Q14994 whole entry, looked up): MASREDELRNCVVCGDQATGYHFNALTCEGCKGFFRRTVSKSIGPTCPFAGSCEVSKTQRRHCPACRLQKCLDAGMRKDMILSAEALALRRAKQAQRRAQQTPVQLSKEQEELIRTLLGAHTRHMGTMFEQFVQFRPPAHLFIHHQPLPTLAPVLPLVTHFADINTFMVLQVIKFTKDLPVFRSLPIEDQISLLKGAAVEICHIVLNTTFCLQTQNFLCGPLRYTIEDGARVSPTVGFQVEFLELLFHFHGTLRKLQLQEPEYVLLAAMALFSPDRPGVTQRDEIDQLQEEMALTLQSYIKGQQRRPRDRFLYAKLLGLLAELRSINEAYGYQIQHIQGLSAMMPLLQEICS
# Chain of UniProt P03372 (P03372 whole entry, looked up): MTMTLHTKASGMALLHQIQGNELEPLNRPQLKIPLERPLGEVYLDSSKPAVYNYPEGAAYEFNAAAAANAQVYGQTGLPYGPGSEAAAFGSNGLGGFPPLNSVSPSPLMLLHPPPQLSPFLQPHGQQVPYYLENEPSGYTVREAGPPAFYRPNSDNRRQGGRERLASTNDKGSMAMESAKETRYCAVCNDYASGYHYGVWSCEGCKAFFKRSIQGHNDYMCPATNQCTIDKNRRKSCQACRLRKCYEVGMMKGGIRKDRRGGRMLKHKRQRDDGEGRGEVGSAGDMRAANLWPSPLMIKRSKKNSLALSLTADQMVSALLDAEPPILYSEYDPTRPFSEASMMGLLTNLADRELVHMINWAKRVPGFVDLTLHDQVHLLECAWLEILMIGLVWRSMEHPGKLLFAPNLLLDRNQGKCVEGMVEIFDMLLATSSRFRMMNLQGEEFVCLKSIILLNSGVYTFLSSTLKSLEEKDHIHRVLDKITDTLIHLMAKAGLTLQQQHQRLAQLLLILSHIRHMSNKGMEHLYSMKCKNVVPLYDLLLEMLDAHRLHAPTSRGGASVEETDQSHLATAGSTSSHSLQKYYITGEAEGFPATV
# Chain of UniProt P06401 (P06401 whole entry, looked up): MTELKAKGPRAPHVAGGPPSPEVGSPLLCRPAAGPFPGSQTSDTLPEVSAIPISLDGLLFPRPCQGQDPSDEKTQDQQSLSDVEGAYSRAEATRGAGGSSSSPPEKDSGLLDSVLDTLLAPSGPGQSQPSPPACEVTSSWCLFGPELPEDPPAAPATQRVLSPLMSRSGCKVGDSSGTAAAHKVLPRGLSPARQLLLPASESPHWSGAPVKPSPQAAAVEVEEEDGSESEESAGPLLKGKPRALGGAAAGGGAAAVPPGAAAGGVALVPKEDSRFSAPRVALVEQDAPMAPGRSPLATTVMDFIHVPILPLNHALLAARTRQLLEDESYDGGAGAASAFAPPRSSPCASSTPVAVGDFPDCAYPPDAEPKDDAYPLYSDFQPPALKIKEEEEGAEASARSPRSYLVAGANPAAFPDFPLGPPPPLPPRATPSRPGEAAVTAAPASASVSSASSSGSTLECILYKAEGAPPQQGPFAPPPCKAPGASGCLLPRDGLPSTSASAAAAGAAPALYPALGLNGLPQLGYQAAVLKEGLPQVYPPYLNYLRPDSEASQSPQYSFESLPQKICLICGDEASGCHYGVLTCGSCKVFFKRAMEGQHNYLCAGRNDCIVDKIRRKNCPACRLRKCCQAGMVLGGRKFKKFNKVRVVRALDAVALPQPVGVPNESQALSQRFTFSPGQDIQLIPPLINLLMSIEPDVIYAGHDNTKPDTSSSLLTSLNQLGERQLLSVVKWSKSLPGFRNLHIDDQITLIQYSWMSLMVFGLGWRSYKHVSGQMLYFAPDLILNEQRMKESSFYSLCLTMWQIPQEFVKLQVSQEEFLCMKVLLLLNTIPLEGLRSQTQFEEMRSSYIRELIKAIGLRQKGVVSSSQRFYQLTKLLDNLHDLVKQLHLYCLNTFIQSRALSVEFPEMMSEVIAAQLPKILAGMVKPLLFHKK
# Chain of UniProt Q03181 (Q03181 whole entry, looked up): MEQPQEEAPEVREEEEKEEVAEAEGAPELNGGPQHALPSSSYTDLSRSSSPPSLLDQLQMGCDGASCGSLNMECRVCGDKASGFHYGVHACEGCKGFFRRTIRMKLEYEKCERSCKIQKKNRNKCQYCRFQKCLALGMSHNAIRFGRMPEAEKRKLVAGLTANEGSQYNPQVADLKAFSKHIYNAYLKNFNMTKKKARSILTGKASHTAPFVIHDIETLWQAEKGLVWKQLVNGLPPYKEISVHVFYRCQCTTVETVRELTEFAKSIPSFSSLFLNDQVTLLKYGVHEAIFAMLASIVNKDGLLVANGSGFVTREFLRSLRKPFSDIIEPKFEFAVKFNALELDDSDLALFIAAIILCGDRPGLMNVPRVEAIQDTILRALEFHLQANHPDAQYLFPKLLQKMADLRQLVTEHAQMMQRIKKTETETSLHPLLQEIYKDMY
# Chain of UniProt Q92731 (Q92731 whole entry, looked up): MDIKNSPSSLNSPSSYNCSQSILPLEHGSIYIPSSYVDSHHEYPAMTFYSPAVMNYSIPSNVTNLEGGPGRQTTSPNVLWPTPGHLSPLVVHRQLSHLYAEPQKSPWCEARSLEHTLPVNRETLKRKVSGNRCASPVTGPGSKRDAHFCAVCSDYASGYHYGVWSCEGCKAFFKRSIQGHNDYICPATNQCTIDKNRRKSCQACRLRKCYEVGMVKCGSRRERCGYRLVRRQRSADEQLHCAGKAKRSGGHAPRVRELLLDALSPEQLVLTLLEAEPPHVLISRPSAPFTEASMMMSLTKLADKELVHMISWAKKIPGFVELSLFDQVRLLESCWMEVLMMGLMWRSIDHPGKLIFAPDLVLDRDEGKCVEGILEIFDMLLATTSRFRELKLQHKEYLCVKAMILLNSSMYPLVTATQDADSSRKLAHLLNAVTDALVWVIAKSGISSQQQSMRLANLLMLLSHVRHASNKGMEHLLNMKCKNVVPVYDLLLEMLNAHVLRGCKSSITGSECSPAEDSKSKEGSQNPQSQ
# Chain of UniProt P08684 (P08684 whole entry, looked up): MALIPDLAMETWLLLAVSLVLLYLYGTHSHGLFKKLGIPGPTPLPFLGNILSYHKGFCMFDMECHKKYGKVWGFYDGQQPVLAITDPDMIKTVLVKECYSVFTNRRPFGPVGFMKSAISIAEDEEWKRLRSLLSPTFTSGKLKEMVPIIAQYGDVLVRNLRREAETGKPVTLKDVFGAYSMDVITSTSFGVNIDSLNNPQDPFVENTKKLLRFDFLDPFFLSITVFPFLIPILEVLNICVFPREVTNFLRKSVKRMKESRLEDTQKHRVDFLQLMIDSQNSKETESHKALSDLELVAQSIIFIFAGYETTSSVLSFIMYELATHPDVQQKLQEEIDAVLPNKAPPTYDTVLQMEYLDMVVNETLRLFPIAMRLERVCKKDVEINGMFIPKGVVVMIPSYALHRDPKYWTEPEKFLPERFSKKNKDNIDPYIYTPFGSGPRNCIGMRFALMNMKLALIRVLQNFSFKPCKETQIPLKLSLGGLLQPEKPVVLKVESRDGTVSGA
smiles,measurement,setting,value
CN1CC[C@@]2(C)c3cc(O)ccc3N(C)C12 (stereo not given in full),Potency,[1],inconclusive [cytotoxic]
same,Potency,[2],"inconclusive [cytotoxic, single point]"
O=[N+]([O-])c1cc(O)c(O)c([N+](=O)[O-])c1,Potency,[1],inconclusive [cytotoxic]
S=c1[nH]c2ccccc2[nH]1,Potency,[3],"inconclusive [cytotoxic, partial curve, poor fit]"
same,Potency,[4],active: 10.1 µM
N#C/C(=C/c1ccc(O)c(O)c1)C(N)=S,Potency,[1],inactive
COc1ccccc1N,Potency,[5],inactive
same,Potency,[6],"inconclusive [cytotoxic, single point]"
same,Potency,[7],"inconclusive [inhibitor, partial curve]"
CCc1cccc(C)c1N,Potency,[4],active: 34.5 µM
C(COCC1CO1)OCC1CO1 (stereo not given),Potency,[8],"inconclusive [cytotoxic, partial curve]"
CNC(=O)O/N=C/C(C)(C)SC,Potency,[9],inactive
same,Potency,[5],inactive
same,Potency,[10],"inconclusive [activator, single point]"
CC#Cc1cc(C)nc(Nc2ccccc2)n1,Potency,[8],"inconclusive [cytotoxic, partial curve]"
C=CC(=O)OCC(CC)CCCC (stereo not given),Potency,[11],inactive
same,Potency,[8],"inconclusive [cytotoxic, partial curve, poor fit]"
same,Potency,[12],inactive
same,Potency,[10],"inconclusive [rising, single point]"
same,Potency,[6],inactive
COC1=CC(=O)O[C@@H](/C=C/c2ccccc2)C1,Potency,[13],inconclusive
same,Potency,[14],"inconclusive [rising, partial curve, poor fit]"
O=[N+]([O-])/C=C/c1ccc2c(c1)OCO2,Potency,[1],inconclusive [cytotoxic]
same,Potency,[2],active: 22 µM
COP(=O)(OC)O/C(C)=C/C(=O)N(C)C,Potency,[4],active: 14.3 µM
O=C(Cc1ccccc1)c1ccccc1,"activity, negative = inhibition",[15],inconclusive: 17.7%
same,Potency,[16],active: 54.5 µM
same,Potency,[12],"inconclusive [activator, single point]"
O=[N+]([O-])CCO,Potency,[13],inactive
same,Potency,[14],inactive
Nc1ccc2c(c1)Cc1ccccc1-2,Potency,[3],"inconclusive [cytotoxic, single point]"
same,Potency,[16],active: 48.3 µM
same,Potency,[8],"inconclusive [cytotoxic, partial curve]"
same,activation,[17],inconclusive: 11.1%
same,Potency,[4],inactive
COC(=O)C(C)N(C(=O)c1ccco1)c1c(C)cccc1C (stereo not given),Potency,[3],inactive
CC[N+](=O)[O-],Potency,[16],"inconclusive [activator, partial curve, poor fit]"
Cc1c2ccncc2c(C)c2c1[nH]c1ccccc12,Potency,[1],"inconclusive [cytotoxic, single point]"
same,Potency,[2],"inconclusive [cytotoxic, partial curve]"
NC(=O)c1ccc(OCC(O)CN2CC=C(c3ccc(F)cc3)CC2)cc1 (stereo not given),Potency,[1],inactive
CC[C@H](O)C(C[C@H](C)N(C)C)(c1ccccc1)c1ccccc1,Potency,[15],inactive
same,Potency,[18],"inconclusive [cytotoxic, full curve]"
same,Potency,[8],"inconclusive [cytotoxic, partial curve]"
same,Potency,[6],"inconclusive [cytotoxic, partial curve]"
same,Potency,[14],inactive
same,Potency,[4],"inconclusive [inhibitor, single point]"
CN(CCCC(O)c1cccnc1)N=O (stereo not given),Potency,[7],"inconclusive [inhibitor, full curve]"
NNC(N)=O,Potency,[18],inactive
CN1CC[C@]23c4c5ccc(O)c4O[C@H]2[C@@H](O)CC[C@H]3[C@H]1C5,Potency,[17],inactive
COC[C@H]1OC(=O)c2coc3c2[C@@]1(C)C1=C(C3=O)C2CCC(=O)[C@@]2(C)C[C@H]1OC(C)=O (stereo not given in full),Potency,[1],inconclusive [cytotoxic]
Cc1ccc(-c2nc3ccc(C)cn3c2CC(=O)N(C)C)cc1,"activity, negative = inhibition",[15],inconclusive: 35%
same,Potency,[16],"inconclusive [activator, partial curve, poor fit]"
same,Potency,[10],inactive
CCC1(CC)C(=O)C=CNC1=O,Potency,[18],inactive
same,Potency,[13],inactive
